# The RNAGym collection of RNA variant scans (doi:10.1073/pnas.2313332121)
# This sample is rich in variants without activity.
# B1: TPR 5TU (parent)
# chain: GGAUCUUCUCGAUCUAACAAAAAAGACAAAUCUGCCACAAAGCUUGAGAGCAUCUUCGGAUGCAGAGGCGGCAGCCUUCGGUGGCGCGAUAGCGCCAACGUUCUCAACUAUGACACGCAAAACGCGUGCUCCGUUGAAUGGAGUUUAUCAUG
# Variants of: B1
# Test: polymerase ribozyme fitness, log enrichment relative to wild type (log ratio); higher = more active; in vitro selection for triplet polymerase activity
# In short: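 Mutant libraries were PCR-built and transcribed for each subunit of a heterodimeric triplet polymerase ribozyme and selected for one round in triplicate at −7 °C, frozen, before gel excision of extended constructs and streptavidin-bead capture. Input and output libraries were Illumina-sequenced, keeping genotypes with ≥10 input reads and ≥1 read per output. Fitness is a logarithmic ratio of genotype to wild-type enrichment, in base 2, using inverse-variance-weighted replicate averages.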
row,Variant,polymerase ribozyme fitness (log ratio)
1,GGAUCUUCUCGAUAUAACAAAAAAGACUAAUCUGCCACAAAGCUUGAGAGCAUCUUCGGAUGCAGAGGCGGCAGCAGUCGGUGGCGCGAUAGAGCCAACGUUCUCAACUAUGACACGCAAAACGCGUGCUCCGUUGAAUGGAGUUUAUCAUG [C14A A28U C76A U77G C93A],≤ -4.2
2,GGAUCUUCUCGAUAUAACAAAAAAGACAGAUCUGCCACAAAGCUUGAGAGCAUCUUCGGAUGCAGAGGCCGCAGCCUUCGGUGGCGCGAUAGCGCCAACGUUCUCAACUAUGACACGCAAAACGCGUGCUCCGUUGAAUUGAGUUUAUCAUG [C14A A29G G70C G140U],≤ -4.2
3,GGAUCUUCUCGAUAUAACAAAAAAGACAAAUCUGCCACCAAGCUUGAGAGCAUCUUCGGAUGCAGAGGCGGCCGCCUUCGGUGGCGCGAUAGCACCAAGGUUCUCAACUAUGACAUGCAACACGCGUGCUCCGUUGAAUGGAGUUUAUCAUG [C14A A39C A73C G94A C99G C116U A121C],≤ -4.2
4,GGAUCUUCUCGAUAUAACAAAAAAGACAAAUCUGCCACUAAGCUUGAGCGCAUCUUAGGAUGCAGAGGCGGCAGCCUUGGGUGGCUCGAUAGCGCCAACGUUCUCAACUAUGACACGCAAAACGCGUGCUCCGUUGAAUGGAGUUUAUCAUG [C14A A39U A49C C57A C79G G86U],≤ -4.2
5,GGAUCUUCUCGAUAUAACAAAAAAGACAAAUCUGCCACUAAGCUUGAGAGCAUCUUCGGAUGCAGAGGCGGCGGCCUUCGGUGGCGCGAUAGCGGCAACGUUCUCAACUAUGACACGCAAAACGCGUGCUCCGUUGAAUGGAGUUUAUCAUG [C14A A39U A73G C95G],≤ -4.2
6,GGAUCUUCUCGAUAUAACAAAAAAGACAAAUCUGCCACAGAGCUUGAGAGCAUCUUCCGAUGCAGAGGCGGCAGCCUUCGGUGGCGGGAUAGCGCCAACGUUCUCAACUAUGACACGCAAAACGCGUGCUCCGUUGAAUGGAGUUUACCAUG [C14A A40G G58C C87G U148C],≤ -4.2
7,GGAUCUUCUCGAUAUAACAAAAAAGACAAAUCUGCCACAUAGCUUGAGAGCAUCUUCGGAUGCAGAGGCGGCAGCCUUCGGUGGCGCGAUAGAGCCAACGUUCUAAACUAUGACACGCAAAACGCGUGCUCCGUUGAAUGGAGUUCAUCAUG [C14A A40U C93A C105A U146C],≤ -4.2
8,GGAUCUUCUCGAUAUAACAAAAAAGACAAAUCUGCCACAACGCUUGAGAGCAUCUUCGGAUGCAGAGGCGGCAGCUUUCGGUGUCGCGAUAGCGCCAACGUUCUCAACUAUGACACGCAAAACGCGUGCUCCGUUGAAUGGAGUUUAUCAUG [C14A A41C C76U G84U],-2.89
9,GGAUCUUCUCGAUAUAACAAAAAAGACAAAUCUGCCACAACGCUUGAGAGCAUCUUCGGAUGCAGAGGCAGCAGCCUUCGGUGGCGCGAUAGCCCCAACGUUCUGAACUGUGACACGCAAAACGCGUGCUCCGUUGAAUGGAGUUUAUCAUG [C14A A41C G70A G94C C105G A110G],≤ -4.2
10,GGAUCUUCUCGAUAUAACAAAAAAGACAAAUCUGCCACAAAGCUUGCGAGCAUCUUCGGAUGCAGAGGCGGCAGCCUUCGGUGGGGCGAUAGCGCCAACGUUCUCAACUAUGACACGCAAAACUCGUGCUCCGUUGAAUGGAGUUUAUCAUG [C14A A47C C85G G124U],≤ -4.2
11,GGAUCUUCUCGAUAUAACAAAAAAGACAAAUCUGCCACAAAGCUUGGGAGCGUCUCCGGAUGCAGAGGCGGCAGCCUUCGGUGGCGCAAUAGCGCCAACGUUGUCAACUAUGACACGCAAAACGCGUGCUCCGUUGAAUGGAGUUCAUCGUG [C14A A47G A52G U56C G88A C103G U146C A150G],≤ -4.2
12,GGAUCUUCUCGAUAUAACAAAAAAGACAAAUCUGCCACAAAGCUUGGGAGCAUCUUCGGAUGCAGAGGCGGCAGCCUUCGGUGGUGCGAUAGCGCCAACGUUCUAAACUAUGACACGCAAAACGCGUCCUCCGUUGCAUGGAGUUUAUCCUG [C14A A47G C85U C105A G128C A137C A150C],≤ -4.2
13,GGAUCUUCUCGAUAUAACAAAAAAGACAAAUCUGCCACAAAGCUUGAGCGCAUCUUCGGAUGCAGAGGCGGCAGCCUUCGGUGGAGCGAGAGCUCCAACGUUCUCAGCUAUGACACGCAAAACGCGUGCUCCGUUGAAUGUAGUUUAUCAUG [C14A A49C C85A U90G G94U A107G G141U],≤ -4.2
14,GGAUCUUCUCGAUAUAACAAAAAAGACAAAUCUGCCACAAAGCUUGAGGGCAUUUUCGGAUGCAGAGGCGACAGCCCUCGGUGGCUCGAUAGCGCCAACGUUCUCAACUAUGACACGCAAAACGCGUGCUCCGUUGAAUGGAAUUUAUCAUG [C14A A49G C54U G71A U77C G86U G143A],≤ -4.2
15,GGAUCUUCUCGAUAUAACAAAAAAGACAAAUCUGCCACAAAGCUUGAGGGCAUCUUCGGAUGCAGAGGCGGCAGCCUUCGGUGGCGCGAUACCGCCAACGUUCUCAGCUAUGACACGCAAAACGCGUGCUCCGUUAAAUGGAGUUUAUCAUG [C14A A49G G92C A107G G136A],≤ -4.2
16,GGAUCUUCUCGAUAUAACAAAAAAGACAAAUCUGCCACAAAGCUUGAGAGCAUCUUCGGAUGCUGAGGCGGCAGCCUUCGGUGGCGCGAUAGUGCCAACGUUCUCAACUAUGACACGCAAAACGCGUGCUCCGUUGAAUGAAGUUUAUCAUG [C14A A64U C93U G141A],≤ -4.2
17,GGAUCUUCUCGAUAUAACAAAAAAGACAAAUCUGCCACAAAGCUUGAGAGCAUCUUCGGAUGCAGGGGCGGCAGCCUUCGGUGGGGCGAUAGCGCCAACGUUCUCCACUAUGACAUGCAAAACGCGUGCUCCGUUGAAUGGAGUUUAUCAUG [C14A A66G C85G A106C C116U],≤ -4.2
18,GGAUCUUCUCGAUAUAACAAAAAAGACAAAUCUGCCACAAAGCUUGAGAGCAUCUUCGGAUGCAGAGGCGGCAGCCUUCGGUGGCGCGCUCGCGCCAACGUUCUCAACUAUGACACGCAAAACGCGUGCUCCGUUGAAUGGGGUUUAUCAUG [C14A A89C A91C A142G],≤ -4.2
19,GGAUCUUCUCGAUAUAACAAAAAAGAUAAAUCUGCCACAAAGCUUGAGAGCAUCUUCGGAUGCAGAGGCGGCAGCCGUCGGUCGCGCGAUAGCGCCAACGUUCUCGACUAUGACACGCAAAACGCGUGCUCCGUUGAAUGGAGUUUAUCAUG [C14A C27U U77G G83C A106G],≤ -4.2
